Experimental data published in PubChem BioAssay AID651820 (National Center for Advancing Translational Sciences (NCATS), 2012).
Among all 340,000 compounds or so, about 12,000 (3.5%) were called active. This list was built around the results that the source calls inconclusive (neither active nor inactive); the mix of calls is not that of the screen. Calls follow the shape of the dose curve; as a rule, active = well fitted inhibition curve with a large enough effect; inconclusive = small, poorly fitted or top-dose-only effect, or another doubt; inactive = no such curve, though single readings can be large or run the other way. Potencies of inconclusive entries are left out as doubtful fits.

assay: qHTS Assay for Inhibitors of Hepatitis C Virus (HCV); conditions: Huh7.5.1 HCVcc-Cre (HCVcc is cell-culture hepatitis C virus) infection, luciferase reporter, 44 h; series mostly up to 41.8 µM
Procedure, shortened: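 Seed cells (1,000/well) for 4 h; treat with compound and infect with HCVcc-Cre, moi about 0.5. Incubate 44 h, then detect luciferase activity.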
Potency is read from the fitted curve at half-maximal effect; tags tell the direction and shape of the fitted curve.

Question: For `Cn1c(NCCCN2CCOCC2)nc2c1c(=O)n(Cc1ccc(Cl)cc1)c(=O)n2C`, which Potency is on record?
Answer: inconclusive [inhibitor, single point]

Question: With `CCCCCCCCCCCCCCCCCCNc1ccn(C2OC(COP(=O)(O)OCC3OC(n4cc(F)c(=O)[nH]c4=O)CC3O)C(O)C2O)c(=O)n1` (stereo not drawn) as the compound, how does the Potency read?
Answer: inconclusive [inhibitor, partial curve, poor fit]

Question: For `CCCCNc1c(-c2ccc(OC)c(SC3CCCCC3)c2)nc2ccc(Cl)cn12`, which Potency is on record?
Answer: inactive

Question: Which Potency does the source give for `c1ccc2sc(Nc3nc4cc5c(cc4s3)OCO5)nc2c1` here?
Answer: inactive

Question: With `CCN(CC)CCn1c(=N)n(CC(O)COc2ccccc2)c2ccccc21` (stereo not drawn) as the compound, how does the Potency read?
Answer: inconclusive [inhibitor, partial curve, poor fit]

Question: For `CCCc1cc(C(=O)OCC(=O)N(CCC)c2c(N)n(Cc3ccccc3)c(=O)[nH]c2=O)sc1C`, which Potency is on record?
Answer: inconclusive [inhibitor, partial curve]

Question: For `CON1C(=O)C(=O)N(OC)C2CCCCCC21` (stereo not drawn), which Potency is on record?
Answer: inactive

Question: Which Potency does the source give for `CCO[C@H]1OC(C(=O)N2CCN(Cc3ccc4c(c3)OCO4)CC2)=C[C@@H](C)[C@@H]1CCCO` here?
Answer: inactive

Question: With `Cc1ccccc1NC(=O)CSc1nc2c(c(-c3ccco3)c1C#N)CCCC2` as the compound, how does the Potency read?
Answer: inactive

Question: For `CCOC(=O)c1sc(NC(=O)CCSC)nc1C`, which Potency is on record?
Answer: inactive

Question: For `CC(=O)N1CCC(N(CCN2CCOCC2)C(=S)Nc2ccc(C)c(C)c2)CC1`, which Potency is on record?
Answer: inactive

Question: For `CC(C)CNC(=S)NNC(=O)c1csc2c1CCCC2`, which Potency is on record?
Answer: inactive

Question: For `CCOC(=O)c1cc2c(=O)n3ccccc3nc2n(CCOC)c1=NC(=O)C(C)(C)C`, which Potency is on record?
Answer: inconclusive [inhibitor, partial curve]

Question: Which Potency does the source give for `Cc1ccc(C(=O)N/C(=C\c2ccccc2F)c2nc(=S)[nH][nH]2)cc1` here?
Answer: inactive

Question: Which Potency does the source give for `CCCCCCCN(C(=O)CCl)c1ccccc1C` here?
Answer: inconclusive [inhibitor, single point]

Question: With `O=C1[C@H]2[C@@H](c3ccc(F)cc3)N3C(=O)N(c4ccccc4)C(=O)[C@@]3(Cc3ccc(Cl)cc3)[C@H]2C(=O)N1C1CCCCC1` as the compound, how does the Potency read?
Answer: inactive

Question: With `Cc1cccc(Cn2c(C)nc3c(N)c(C)c(C)cc32)c1` as the compound, how does the Potency read?
Answer: inactive

Question: For `O=C1CCCC1C(=O)Nc1ccc2ccccc2c1` (stereo not drawn), which Potency is on record?
Answer: inactive

Question: Which Potency does the source give for `COC(=O)C1=C(c2ccc(OCc3ccccc3)cc2)C[C@@H]2CC[C@H]1N2C(=O)NC1CCN(Cc2ccccc2)CC1` here?
Answer: inconclusive [inhibitor, partial curve]

Question: With `COc1ccc(C2=CC(c3cc(OC)c(OC)c(OC)c3)NC(=S)N2)cc1` (stereo not drawn) as the compound, how does the Potency read?
Answer: inactive

Question: With `COc1cccc(CN(C)C(=O)c2[nH]c(C)c(C(C)=O)c2C)c1OC` as the compound, how does the Potency read?
Answer: active: 11.2 µM

Question: Which Potency does the source give for `CCOc1ccccc1C=NNC(=O)CCCCC(=O)NN=Cc1ccccc1OCC` here?
Answer: inconclusive [inhibitor, full curve]

Question: With `CC(C)(c1ccccc1)c1ccc(OCCN2CCCC2)cc1` as the compound, how does the Potency read?
Answer: inconclusive [inhibitor, partial curve]

Question: For `CSc1nc(C)c(CCO)c(=O)[nH]1`, which Potency is on record?
Answer: inactive

Question: For `O=C(CSc1nc2ccccc2c(=O)n1Cc1ccco1)NCc1ccco1`, which Potency is on record?
Answer: active: 10 µM

Question: Which Potency does the source give for `COc1ccc(CCNC(=O)Cc2cc(OCc3ccccc3)c(OC)cc2[N+](=O)[O-])cc1OC` here?
Answer: inconclusive [inhibitor, single point]

Question: For `O=P1(NCCCl)OCCCN1CCCl` (stereo not drawn), which Potency is on record?
Answer: inconclusive [inhibitor, single point]

Question: For `Cc1cccc(C)c1N=Nc1c(C)cc(O)cc1C`, which Potency is on record?
Answer: inconclusive [inhibitor, partial curve]

Question: With `O=C1OCC2=C1C(c1ccc(F)cc1)c1cc3c(cc1N2)OCO3` (stereo not drawn) as the compound, how does the Potency read?
Answer: inconclusive [inhibitor, single point]

Question: For `CC1CC(OCC(O)CN2CCCCC2C)CC(C)(C)C1` (stereo not drawn), which Potency is on record?
Answer: inconclusive [inhibitor, single point]

Question: With `CCCc1cc2c(=O)c(-c3ccc4c(c3)OCCO4)coc2cc1OS(C)(=O)=O` as the compound, how does the Potency read?
Answer: active: 10 µM

Question: For `O=C(COC(=O)c1ccccc1Nc1ccc(SC(F)F)cc1)NC1CC1`, which Potency is on record?
Answer: inactive

Question: For `CCC(C(=O)NC1CCCC1)N(C(=O)Cn1nnc(-c2ccc(C)o2)n1)c1cccc(O)c1` (stereo not drawn), which Potency is on record?
Answer: inconclusive [inhibitor, single point]

Question: For `COc1ccccc1NC(=O)Cc1noc(CSc2cccc[n+]2[O-])n1`, which Potency is on record?
Answer: inactive

Question: Which Potency does the source give for `Cc1nn(Cc2ccc(C(=O)Nc3ccc(C(=O)OC(C)C)cc3)o2)c(C)c1Cl` here?
Answer: inconclusive [inhibitor, partial curve]

Question: With `COc1ccccc1N1CCN(C2=Nc3cccc4cccc2c34)CC1` as the compound, how does the Potency read?
Answer: active: 12.6 µM

Question: Which Potency does the source give for `COc1cc(NC(=O)c2cc3c(CO)cnc(C)c3oc2=Nc2cccc(C(N)=O)c2)cc(OC)c1` here?
Answer: inactive

Question: For `Cc1ccc(S(=O)(=O)NC(C)(C)CN2CCNCC2)cc1`, which Potency is on record?
Answer: inconclusive [inhibitor, single point]

Question: For `NC(=O)c1ccsc1NC(=O)COC(=O)Cc1c[nH]c2ccccc12`, which Potency is on record?
Answer: inconclusive [inhibitor, partial curve]

Question: For `COc1ccc(-c2cc(C(=O)OCC(=O)N3CCOCC3)c3ccccc3n2)cc1`, which Potency is on record?
Answer: inconclusive [inhibitor, single point]

Question: With `Cc1ccc(-c2cc(C(=O)N3CCN(c4ncccn4)CC3)c3ccccc3n2)cc1` as the compound, how does the Potency read?
Answer: inconclusive [inhibitor, single point]

Question: For `CC(C)N(C(=O)N1CCN(c2ccnc3cc(Cl)ccc23)CC1)C(C)C`, which Potency is on record?
Answer: inconclusive [inhibitor, single point]

Question: With `O=C(C1=C[C@@H](c2coc3ccccc3c2=O)C[C@@H](OCCCCO)O1)N1CCN(Cc2ccccc2)CC1` as the compound, how does the Potency read?
Answer: inactive

Question: With `CCOC(=O)Nc1ccc(N2CCOCC2)c(S(=O)(=O)Nc2ccc(Cl)cc2)c1` as the compound, how does the Potency read?
Answer: inconclusive [inhibitor, single point]

Question: For `COc1ccc(C(CNC(=O)CNC(=O)c2ccccc2)N2CCCC2)cc1` (stereo not drawn), which Potency is on record?
Answer: inactive

Question: For `Cc1ccc2c3c([nH]c2c1C)-c1nonc1CC3`, which Potency is on record?
Answer: inconclusive [inhibitor, single point]

Question: Which Potency does the source give for `Cc1ccccc1C(=O)N1CCN(CCNC(=O)C(=O)Nc2ccc(Br)cc2)CC1` here?
Answer: inconclusive [inhibitor, partial curve]

Question: For `CC(=O)NC(Nc1c(C)n(C)n(-c2ccccc2)c1=O)C(Cl)(Cl)Cl` (stereo not drawn), which Potency is on record?
Answer: inactive

Question: For `COc1ccc(-c2nc(N/N=C(\C)c3ccc(O)cc3)c3ccccc3n2)cc1`, which Potency is on record?
Answer: active: 10 µM

Question: With `CCOC(=O)N1CCN(c2cc(=O)n(-c3cccc(Br)c3)c(=O)[nH]2)CC1` as the compound, how does the Potency read?
Answer: inconclusive [inhibitor, single point]

Question: Which Potency does the source give for `O=c1[nH]c(=O)n(C2OC(CO)C(O)C2O)cc1N1CCOCC1` (stereo not drawn) here?
Answer: inactive

Question: For `O=C1OC(N2CCN(C/C=C/c3ccccc3)CC2)c2ccccc21` (stereo not drawn), which Potency is on record?
Answer: inactive

Question: For `CCC(CC)C(=O)c1c[nH]c(C(=O)NCc2cccnc2)c1`, which Potency is on record?
Answer: inactive

Question: Which Potency does the source give for `O=C(CCc1ccncc1)NC1CCCc2c1cnn2-c1ccc(F)cc1F` (stereo not drawn) here?
Answer: active: 12.6 µM

Question: With `CCOC(=O)c1sc(NC(=O)c2ccccc2)cc1C` as the compound, how does the Potency read?
Answer: inconclusive [inhibitor, partial curve]

Question: Which Potency does the source give for `COc1cc(/C=C2/C(=N)N3N=C(C)SC3=NC2=O)ccc1OS(=O)(=O)c1ccc(C)cc1` here?
Answer: inactive

Question: Which Potency does the source give for `Cn1cncc1C#Cc1c(-c2ccsc2)sc2ccccc12` here?
Answer: inconclusive [inhibitor, full curve]

Question: For `COC(=O)c1cc2cc(Cl)ccc2nc1SC`, which Potency is on record?
Answer: inconclusive [inhibitor, single point]

Question: Which Potency does the source give for `O=C(CCN1C(=O)/C(=C/c2ccccc2Cl)SC1=S)NCCc1ccc(O)cc1` here?
Answer: inconclusive [inhibitor, single point]

Question: Which Potency does the source give for `COc1cccc(CNC(=O)c2cc(C3CC3)nc3c2cnn3C(C)C)c1` here?
Answer: inconclusive [inhibitor, partial curve]

Question: For `COc1ccccc1N1CCN(Cc2ccc(Br)cc2)CC1`, which Potency is on record?
Answer: inconclusive [inhibitor, single point]

Question: Which Potency does the source give for `Cc1ccc(C)c(CN2CCC(CNC(=O)Nc3ccc(C)c(F)c3)CC2)c1` here?
Answer: inconclusive [inhibitor, single point]

Question: For `CCCCN(CC)S(=O)(=O)c1ccc(C(=O)N=c2sc3cc(NC(C)=O)ccc3n2C)cc1`, which Potency is on record?
Answer: inconclusive [inhibitor, single point]

Question: With `O=C(N/N=C/c1cnc(N2CCCCC2)s1)c1ccc(C(F)(F)F)cc1` as the compound, how does the Potency read?
Answer: active: 11.2 µM

Question: Which Potency does the source give for `O=C1/C(=C/c2ccccn2)SC(=S)N1c1ccc(O)cc1` here?
Answer: inactive

Question: Which Potency does the source give for `O=C(Cc1cccs1)Nc1nnc(SCc2cccc3ccccc23)s1` here?
Answer: inactive

Question: Which Potency does the source give for `CCOc1ccc(NC(=O)c2ccccc2C(=O)c2ccccc2)cc1OCC` here?
Answer: inactive

Question: With `CCN(Cc1ccccc1)C(=O)Cn1cnc2c1c(=O)n(C)c(=O)n2C` as the compound, how does the Potency read?
Answer: inactive

Question: With `COc1ccc2[nH]cc(S(=O)(=O)c3ccc(C)cc3)c2c1` as the compound, how does the Potency read?
Answer: inconclusive [inhibitor, single point]

Question: With `CC(Sc1nnc(-c2ccccc2F)n1C1CC1)C(=O)NCc1ccco1` (stereo not drawn) as the compound, how does the Potency read?
Answer: inconclusive [inhibitor, single point]

Question: With `OC(CCN1CCCCC1)(c1ccccc1)C1C[C@@H]2C=C[C@H]1C2` (stereo partly drawn) as the compound, how does the Potency read?
Answer: inconclusive [inhibitor, partial curve]

Question: For `COc1ccccc1/C=N/NC(=O)c1cccc(NC(=O)c2ccccc2Cl)c1`, which Potency is on record?
Answer: inconclusive [inhibitor, partial curve]

Question: With `CS(=O)(=O)c1nc(S(=O)(=O)c2ccc(Cl)cc2)c(N2CCC3(CC2)OCCO3)s1` as the compound, how does the Potency read?
Answer: inconclusive [inhibitor, single point]
